Among all 420,000 compounds or so, about 50,000 (12%) were called active. The shares of active, inactive and inconclusive entries below differ from those in the screen. The call rests on the fitted dose curve; in most records, active means well fitted inhibition curve with a large enough effect; inconclusive means small, poorly fitted or top-dose-only effect; inactive means flat fitted curve, though single readings scatter. Potencies of inconclusive entries are left out as doubtful fits.
Test: qHTS for Inhibitors of human tyrosyl-DNA phosphodiesterase 1 (TDP1): qHTS in cells in presence of CPT; further: nearly all actives have a fitted effect of over 55% in size
Settings: chicken DT40 Tdp1-/-;hTDP1 cells + 20 nM CPT, ATP luminescence, 48 h; activity change, negative = growth inhibition: at 46.2 µM (top of the series) unless noted
Summary of the method: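 Chicken DT40 Tdp1-/- cells stably complemented with human TDP1 were seeded at 400 cells/well in medium containing 20 nM camptothecin, exposed to pin-transferred compounds, and grown at 37 °C for at least 48 hr. Viability was read as ATP luminescence.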
On the % scale 0 is the no-effect control and ±100 the full control effect; potency means the concentration at half of the fitted maximal effect; tags describe the fitted curve by direction and shape.

| SMILES | activity change, negative = growth inhibition | Potency |
| --- | --- | --- |
| COC(=O)CCCn1cc(CN2CC(N3CCN(CCN(C)C)CC3)CS2(=O)=O)nn1 (configuration not stated) | inactive: 2.39% |  |
| C=CCn1c(SCc2c(F)cccc2Cl)nnc1-c1ccco1 |  | active: 20.6 µM |
| O=C(NCCc1ccc(Cl)cc1)C(=O)NCC(c1ccco1)S(=O)(=O)c1ccc(Cl)cc1 (configuration not stated) |  | active: 16.4 µM |
| CCOc1ccc(CN2C(=O)c3ccccc3Sc3ccc(C(=O)O)cc32)cc1 |  | inconclusive [inhibitor, single point] |
| CCOC(=O)N1CCN(c2c(N3CCN(c4ccc(OC)cc4)CC3)c(=O)c2=O)CC1 | inactive: -20.4% |  |
| CCOc1ccc(Br)cc1S(=O)(=O)Nc1ccc(Cl)c(S(=O)(=O)N(CC)c2ccccc2)c1 |  | inconclusive [inhibitor, single point] |
| CCCN1C(=O)C2(c3ccccc31)c1c(oc3ccc(F)cc3c1=O)C(=O)N2CCCOC(C)C (configuration not stated) |  | active: 20.6 µM |
| CC(C)CCOc1cccc(OCC(=O)O)c1 | inactive: -8.32% |  |
| CCOC(=O)N1CCN(CC(=O)n2c(C)c(C)c3ccccc32)CC1 | inconclusive: -33% [inhibitor] |  |
| COc1ccc(-c2ccc3c(c2)[C@@H]2C[C@H](N(C)C(=O)C(C)(C)C)[C@H]([C@H](C)O)C(=O)N2CC3)cc1 |  | inconclusive [inhibitor, single point] |
| Cc1nnc(N/N=C/c2ccc(-c3ccc(Br)cc3)o2)n1N |  | inconclusive [inhibitor, single point] |
| COc1ccc(C(=O)Nc2ccc3oc(-c4cccc(F)c4)nc3c2)cc1OC |  | inconclusive [inhibitor, partial curve] |
| O=C(c1ccccc1)c1sc(N2CCCCCC2)nc1-c1ccccc1 |  | inconclusive [inhibitor, single point] |
| COc1cccc(C(=O)NC2CCCN(C3Cc4ccccc4C3)C2)c1OC (configuration not stated) |  | inconclusive [inhibitor, single point] |
| CC(=O)Nc1ccc(NC(=O)COc2cc(O)c3c(c2)OC(C)(C)CC3=O)cc1 |  | inconclusive [inhibitor, single point] |
| COc1cc(-n2c(C)nc3cc(C(=O)NCc4ccco4)ccc32)cc(OC)c1OC | inactive: -3.22% |  |
| Cc1cccc(NC(=O)C2CCCN(S(=O)(=O)c3cccs3)C2)c1C (configuration not stated) |  | inconclusive [inhibitor, partial curve] |
| CC(C)(C)n1nnnc1C(c1cccs1)N1CCCc2ccccc21 (configuration not stated) |  | inconclusive [inhibitor, single point] |
| CN(C(=O)CSc1nnc(-c2ccccc2F)o1)C1CCCCC1 | inactive: -4.33% |  |
| c1coc(-c2nc3n(n2)C2(CCCCC2)[C@@H]2CCCC[C@@H]2N3)c1 |  | inconclusive [inhibitor, single point] |
| Cc1ccc(NC(=O)Cn2ncc(Cl)c(Cl)c2=O)cc1S(=O)(=O)N1CCCCC1 |  | active: 7.31 µM |
| COc1ccc(OC)c(NS(=O)(=O)c2ccc(-c3cc(C)no3)s2)c1 |  | active: 1.3 µM |
| Cc1ccc(Cl)cc1NC(=S)N(Cc1ccco1)C(C)c1cccs1 (configuration not stated) |  | inconclusive [inhibitor, single point] |
| Cc1ccc(OCCCCNC2CCCC(C)C2C)c(C)c1 (configuration not stated) |  | active: 8.2 µM |

| SMILES | activity change, negative = growth inhibition | Potency |
| --- | --- | --- |
| CC(C)OC(=O)c1ccc(NC(=O)CSc2nc3ncccc3[nH]2)cc1 |  | active: 8.2 µM |
| C#CCOCCOCCOCCNc1nc(N2CCN(C(=O)CCCCCCCCCCNC(=O)Cn3cc(CCCCCN)nn3)CC2)nc(N2CCN(C(=O)CCCCCCCCCCNC(=O)[C@@H](CCSC)n3cc(CCO)nn3)CC2)n1 |  | inconclusive [inhibitor, single point] |
| CCCCCCCCCCCCCCCC[N+](C)(C)CCl |  | active: 1.84 µM |
| CCOC(=O)C1=C(N)Oc2ccc3ccccc3c2C1c1ccc(O)cc1 (configuration not stated) |  | inconclusive [inhibitor, single point] |
| NC(=O)C1CCN(C(=O)c2ccc3c(=O)n(Cc4ccco4)c(SCc4ccc([N+](=O)[O-])cc4)nc3c2)CC1 |  | inconclusive [inhibitor, single point] |
| CC1CCN(C(=O)COC(=O)c2ccc3c(c2)OCO3)CC1 | inactive: -1.69% |  |
| COc1ccc(NC(=O)c2ccco2)c2ccccc12 | inactive: -22.9% |  |
| O=C(c1cc2cc(Cl)ccc2[nH]1)N1CCN(c2ccc(F)cc2)CC1 | inactive: -14.4% |  |
| CCC(C(=O)OC)n1cnc2c(nnn2-c2ccc(F)cc2)c1=O (configuration not stated) | inactive: -3.65% |  |
| OCCCNc1nc(-c2ccccc2)nc2c1oc1ccccc12 | inactive: -13.5% |  |
| COc1ccc(O)c(-c2cc(-c3cccs3)[nH]n2)c1 |  | active: 14.6 µM |
| CCc1cccc(CN2CCC(CNC(=O)Nc3ccc(Cl)cc3)CC2)c1 |  | inconclusive [inhibitor, single point] |
| CCc1ccc(CN2CCc3nc(N4CCN(CC)CC4)ncc3C2)cc1 |  | inconclusive [inhibitor, single point] |
| CN(C)c1ccc(CNC(=O)CCn2cccn2)cc1 | inactive: 6.59% |  |
| O=C(Nc1cccc(F)c1)C1CCN(S(=O)(=O)c2cccc3nsnc23)CC1 |  | inconclusive [inhibitor, single point] |
| O=C(NCC(c1ccco1)N1CCc2ccccc21)c1ccccc1 (configuration not stated) |  | inconclusive [inhibitor, single point] |
| COc1cc2c(cc1OC)CN(c1ccc(-c3ccccc3OC)nn1)CC2 |  | inconclusive [inhibitor, single point] |
| CCCCNC(=O)c1ccccc1NC(=O)C1=C(C)OCCS1 |  | inconclusive [inhibitor, single point] |
| COc1ccc(CCNS(=O)(=O)c2cc(-c3cc(C)no3)ccc2C)cc1OC |  | inconclusive [inhibitor, single point] |
| COc1ccccc1C(=O)NCCC(=O)N(Cc1ccco1)Cc1cccs1 |  | inconclusive [inhibitor, single point] |
| CCN(CC)S(=O)(=O)c1ccc(N2CCCC2)c(NS(=O)(=O)c2cccs2)c1 |  | inconclusive [inhibitor, single point] |
| CCN(CC(=O)Nc1cc(Cl)ccc1Cl)C(=O)c1ccc(-n2cccn2)cc1 |  | inconclusive [inhibitor, partial curve, poor fit] |
| Cc1ccc(Cl)cc1Nc1nn2c(=O)c3ccc(C(=O)N4CCCC(C)C4)cc3nc2s1 (configuration not stated) |  | inconclusive [inhibitor, partial curve] |
| CN(C)CCn1c(SCc2ccccc2C#N)nc2c(sc3ccccc32)c1=O | inactive: -21% |  |

| SMILES | activity change, negative = growth inhibition | Potency |
| --- | --- | --- |
| CC(C)c1cnc2c(c1SCC(=O)Nc1cccc(F)c1)c(=O)n(C)c(=O)n2C |  | inconclusive [inhibitor, single point] |
| CC1Cc2ccccc2N1Cc1nc2cc(C(F)(F)F)ccc2c(=O)[nH]1 (configuration not stated) |  | inconclusive [inhibitor, single point] |
| COc1cc(C)c(Br)cc1S(=O)(=O)NCc1ccncc1 |  | active: 10.3 µM |
| CNC(=O)Cn1nc(-c2ccc(C)cc2)c2ccccc2c1=O |  | inconclusive [inhibitor, single point] |
| CCCS(=O)(=O)N1CCCC(C(=O)NCCN(CC)c2ccccc2)C1 (configuration not stated) | inactive: -29.5% |  |
| CCOc1ccc(C(=O)NC(=S)Nc2ccccc2N2CCC(C)CC2)cc1[N+](=O)[O-] |  | inconclusive [inhibitor, single point] |
| COCCn1c(C)cc(C(=O)COC(=O)c2cncc(Br)c2)c1C |  | inconclusive [inhibitor, partial curve] |
| Cc1ccc(NC(=O)c2ccc(CSc3nnc(C)s3)cc2)c(C)c1 |  | inconclusive [inhibitor, partial curve] |
| Cc1cnc(C(=O)OCC(=O)N(Cc2ccccc2)C(C)(C)C)cn1 | inactive: 1.23% |  |
| CSc1ccc(C2NC(=O)c3ccccc3N2)cc1 (configuration not stated) |  | active: 10.3 µM |
| CCCCN(C)C(=O)c1ccc(Nc2nc(C(N)CCc3ccccc3)cs2)nc1 (configuration not stated) |  | active: 14.6 µM |
| CCCN(CCC)S(=O)(=O)c1ccc(C(=O)Nc2sc3c(c2C(=O)OC)CCN(CC)C3)cc1 |  | active: 16.4 µM |
| Cc1cccc(NC2=C(Cl)C(=O)OC2OC(=O)c2ccco2)c1 (configuration not stated) |  | active: 20.6 µM |
| Cc1ccc2c(c1)nnn2C1CCN(CC(=O)Nc2ccc(F)cc2)CC1 |  | inconclusive [inhibitor, single point] |
| CCOc1cccc(C=NNc2ccc(S(=O)(=O)Nc3ccccc3C(=O)O)cc2[N+](=O)[O-])c1O | inactive: -1.94% |  |
| Cc1ccc(CO/N=C\Cc2snc(Sc3ncc(C(F)(F)F)cc3Cl)c2C#N)cc1 |  | inconclusive [inhibitor, single point] |
| COc1ccc(/C=C/S(=O)(=O)NCc2ccccc2)cc1OC | inactive: -24% |  |
| CCC(C)c1ccc(NC(=O)c2cccs2)cc1 (configuration not stated) |  | inconclusive [inhibitor, single point] |
| CC(C)(C(N)=O)N1CCN(c2ncc(C(F)(F)F)cc2Cl)CC1 |  | active: 14.6 µM |
| O=C(CC1C(=O)N(c2ccc(Cl)cc2)C(=S)N1CCc1ccncc1)Nc1ccc(F)cc1 (configuration not stated) |  | inconclusive [inhibitor, partial curve] |
| CC1=CCC(C(=O)O)C(C(=O)Nc2ccc(-c3nc4ccc(C)cc4s3)cc2)C1 (configuration not stated) | inactive: -2.99% |  |
| CC(C)c1ccc(N(CC(=O)O)S(=O)(=O)c2cccnc2)cc1 |  | inconclusive [inhibitor, single point] |
| O=C(Nc1ccc(F)cc1)N1CCN(c2ncccn2)CC1 | inactive: 0.542% |  |
| CCOC(=O)c1c(C)oc2c1C(=O)c1ccccc1C2=O |  | active: 4.61 µM |

Source: PubChem BioAssay AID686979 (National Center for Advancing Translational Sciences (NCATS), 2013)
